Experimental data as given in the supplement of paper PMC12889115.
The list shows a part of the results. Rule as the data show it: active = 25% or less and inactive = the rest. Many values rest on one well or one pass, so single values are uncertain.

How the values were obtained:
[1] = system: Salmonella enterica serovar Typhimurium SL1344; experiment: bacterial growth OD600 after 18 h in MHB with 0.5 µg/mL polymyxin B; higher = more bacterial growth (less inhibition); details: 25 µM; polymyxin B 0.5 µg/mL; system: broth
Procedure: (§1)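 Secondary screen of the 553 primary hits at 25 µM. (i) S. Typhimurium SL1344 grown in Mueller-Hinton broth with 0.5 µg/mL polymyxin B, OD600 read after 18 h. (ii) SAFIRE assay: RAW 264.7 macrophages infected with S. Typhimurium sifB::gfp (MOI 30); compound added 2 h post-infection; cells fixed at 18 h; GFP-positive pixel fraction per macrophage imaged by confocal microscopy and expressed as % of DMSO control.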

[2] = system: Salmonella enterica serovar Typhimurium SL1344; experiment: intramacrophage bacterial GFP load (SAFIRE), percent of DMSO control (% of DMSO); higher = more intracellular bacteria (less inhibition); details: 25 µM; system: infected RAW 264.7 macrophages
Procedure: as §1
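For bacterial growth OD600 after 18 h in MHB with 0.5 µg/mL polymyxin B in this document: polymyxin B level opens the outer membrane while sparing the inner membrane, with novobiocin wells as reference growth inhibitor.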
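For intramacrophage bacterial GFP load (SAFIRE), percent of DMSO control in this document: compounds tested were the hits of an earlier 50 µM broth growth screen of a drug-like diversity library run with polymyxin B.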

Row | Compound | bacterial growth OD600 [1] | intramacrophage bacterial GFP load [2]
1 | CN(Cc1ccc(C(F)(F)F)cc1)C(=O)c1cn(Cc2ccc(F)cc2)nn1 | 0.002 | inactive: 80.5
2 | CC(COc1ccccc1)N1CCc2onc(-c3ccc4c(c3)OCO4)c2C1 (stereo unspecified) | -0.003 | inactive: 60.1
3 | Cc1ccc2c(c1)CN(Cc1ccncc1)CC(c1ccsc1)O2 (stereo unspecified) | 0.38 | inactive: 90.4
4 | COc1ccc(OC)c(S(=O)(=O)N(Cc2ccncc2)Cc2cccc(OCCCc3ccncc3)c2)c1 | 0 | inactive: 63.3
5 | COc1ccc(C(=O)N2CCCC(C(=O)c3ccc4ccccc4c3)C2)o1 (stereo unspecified) | 0.003 | inactive: 101
6 | COc1cccc(CC(C2CCN(C(=O)CC3CCCCC3)CC2)N(C)C(=O)c2ccsc2)c1 (stereo unspecified) | 0.007 | inactive: 35.6
7 | Cc1nn(C)c(C)c1CN(C(=O)CC1(c2ccc(-c3ccccc3)cc2)CC(=O)N(C)C1=O)C1CC1 (stereo unspecified) | -0.001 | inactive: 109
8 | COc1ccc(C)cc1S(=O)(=O)N1CCC(CO)(Cc2cccc(C(F)(F)F)c2)CC1 | -0.016 | inactive: 105
9 | Cc1cc(Cl)c2oc(C(=O)N(CCO)Cc3ccccc3)c(C)c2c1 | -0.006 | inactive: 81.3
10 | CO[C@H]1[C@H](NC(=O)c2ccccn2)c2ccccc2C12CCN(C(=O)c1ccc(CC(C)C)cc1)CC2 | 0.001 | inactive: 46.3
11 | COCc1ccc(C(=O)N2CCCC(CCc3ccccc3)C2)o1 (stereo unspecified) | 0.006 | inactive: 94
12 | O=C1N(C2Cc3ccccc3C2)C[C@@H]2C[C@@H](c3cccn3-c3cccnc3)N3CCC[C@@]123 | 0.51 | inactive: 48.9
13 | CCOC(=O)C1(CCc2ccccc2)CCCN(Cc2nccn2CC)C1 (stereo unspecified) | 0.002 | active: 10.8
